For part of its entries the source gives two or more results. Only these are listed. There may be further records. Values that stand side by side repeat one measurement in other runs, samples, wells, individuals or studies. A tag in brackets gives the origin of a value. Letters count within one entry.
Test system: M. tuberculosis H37Rv with meropenem, growth inhibition
Assay: M. tuberculosis growth inhibition with meropenem, dose response, H37Rv, set 2 (AID 504702);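 also: growth read by Alamar Blue after 7 days plus overnight incubation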

SMILES	IC50
CCOC(=O)c1cnc2cc(-c3ccc(C(C)(C)C)cc3)nn2c1N	180 nM [sample A] and 1.99 µM [sample B]
COc1ccc2oc(C(=O)Nc3nc4ccccc4[nH]3)c(C)c2c1	160 nM [sample A] and 10.5 µM [sample B]

Source: PubChem BioAssay AID504702 (Southern Research Specialized Biocontainment Screening …, 2011)
